Reference: the BET-seq Pho4 binding data (Le et al. 2018)
The list shows a part of the results. Values were computed here from the reads of four pooled replicates and scatter widely.

These sequences were tested against T1, Pho4 (S. cerevisiae) (UniProt P07270) (assay: relative binding free energy (BET-seq); higher = weaker binding). Conditions: reference: library average.
T1 sequence: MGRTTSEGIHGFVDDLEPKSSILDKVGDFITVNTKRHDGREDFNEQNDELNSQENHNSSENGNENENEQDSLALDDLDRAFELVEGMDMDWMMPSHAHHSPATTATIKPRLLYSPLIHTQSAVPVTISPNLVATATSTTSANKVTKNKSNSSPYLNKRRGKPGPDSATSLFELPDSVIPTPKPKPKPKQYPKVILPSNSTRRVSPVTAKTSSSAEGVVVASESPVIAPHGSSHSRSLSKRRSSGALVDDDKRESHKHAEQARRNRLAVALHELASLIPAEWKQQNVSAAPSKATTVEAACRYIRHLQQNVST
TCCGGCACGTGGGTGA was tested, and the “relative binding free energy” value was -0.2 kcal/mol. TTTGCCACGTGTGGAA was tested, and the “relative binding free energy” value was 0.1 kcal/mol. With AGTCTCACGTGGTATT the “relative binding free energy” value was 0.25 kcal/mol. For GTCCTCACGTGGATGG, the “relative binding free energy” value was 0.31 kcal/mol. AGGTGCACGTGCTTTA was tested, and the “relative binding free energy” value was -0.09 kcal/mol. AAGGGCACGTGGAGGT was tested, and the “relative binding free energy” value was -0.22 kcal/mol. For AGGGGCACGTGGGAAT, the “relative binding free energy” value was -0.07 kcal/mol. GGTTACACGTGTGGGG was tested, and the “relative binding free energy” value was 0.18 kcal/mol. For GAGTTCACGTGCGTAT, the “relative binding free energy” value was 0.33 kcal/mol. With AGCGGCACGTGGGCAA the “relative binding free energy” value was -0.18 kcal/mol. CTTTTCACGTGTGGGT was tested, and the “relative binding free energy” value was 0.27 kcal/mol. In the case of GGGGGCACGTGGCGTG, the “relative binding free energy” value is reported as -0.13 kcal/mol. With TGGGGCACGTGGGGCA the “relative binding free energy” value was -0.23 kcal/mol. In the case of GTGGACACGTGGTTCG, the “relative binding free energy” value is reported as 0.07 kcal/mol. With AAACGCACGTGGTTGT the “relative binding free energy” value was -0.2 kcal/mol. In the case of CGGTTCACGTGGGGGC, the “relative binding free energy” value is reported as 0.24 kcal/mol. With TGTAGCACGTGATGAT the “relative binding free energy” value was 0.2 kcal/mol. TGTATCACGTGTGTTC was tested, and the “relative binding free energy” value was 0.17 kcal/mol. For GGAATCACGTGTGTGG, the “relative binding free energy” value was 0.16 kcal/mol. In the case of TTCGGCACGTGTTGCG, the “relative binding free energy” value is reported as -0.07 kcal/mol. With TGACTCACGTGTGGTT the “relative binding free energy” value was 0.18 kcal/mol. TTTAGCACGTGTAGGG was tested, and the “relative binding free energy” value was -0.01 kcal/mol. With TAATTCACGTGGGGGA the “relative binding free energy” value was 0.08 kcal/mol. For TTAAACACGTGGGCAT, the “relative binding free energy” value was -0.03 kcal/mol. In the case of ATGCGCACGTGTTGGG, the “relative binding free energy” value is reported as -0.13 kcal/mol. With GTTATCACGTGTACAT the “relative binding free energy” value was 0.22 kcal/mol. In the case of GAGGTCACGTGGCGGG, the “relative binding free energy” value is reported as 0.23 kcal/mol. In the case of ATGAACACGTGTGAGG, the “relative binding free energy” value is reported as 0.11 kcal/mol. For AGTGCCACGTGTGTAG, the “relative binding free energy” value was -0.24 kcal/mol. TGAATCACGTGTACTT was tested, and the “relative binding free energy” value was 0.18 kcal/mol. For GATGACACGTGGTGAT, the “relative binding free energy” value was 0.12 kcal/mol. For ATGTGCACGTGGAATA, the “relative binding free energy” value was -0.05 kcal/mol. In the case of CGTTTCACGTGAGTGG, the “relative binding free energy” value is reported as 0.21 kcal/mol. For GAGGGCACGTGAGAGC, the “relative binding free energy” value was 0.26 kcal/mol. With GGTCGCACGTGCTTTT the “relative binding free energy” value was 0.02 kcal/mol. AATTACACGTGTGAGA was tested, and the “relative binding free energy” value was 0.18 kcal/mol. With ATGTGCACGTGAGTCG the “relative binding free energy” value was 0.11 kcal/mol. In the case of CTGGTCACGTGCCGTG, the “relative binding free energy” value is reported as 0.11 kcal/mol. For GTGGCCACGTGGGTCG, the “relative binding free energy” value was -0.05 kcal/mol. With AGGCGCACGTGCGTGT the “relative binding free energy” value was -0.13 kcal/mol. CGGTTCACGTGAAAGT was tested, and the “relative binding free energy” value was 0.44 kcal/mol. TGTGGCACGTGAAGTT was tested, and the “relative binding free energy” value was 0.22 kcal/mol. In the case of TAGGCCACGTGTGGGC, the “relative binding free energy” value is reported as -0.16 kcal/mol. In the case of ATAGACACGTGGTCTG, the “relative binding free energy” value is reported as -0.08 kcal/mol. With TATGCCACGTGCGGTG the “relative binding free energy” value was -0.15 kcal/mol. TTGAACACGTGGTCGT was tested, and the “relative binding free energy” value was -0.24 kcal/mol. For GGTCTCACGTGGTTGA, the “relative binding free energy” value was 0.1 kcal/mol. In the case of CTGTGCACGTGAGCGT, the “relative binding free energy” value is reported as 0.03 kcal/mol. GCTGACACGTGGGGGG was tested, and the “relative binding free energy” value was 0.02 kcal/mol. GGGTGCACGTGTCAAT was tested, and the “relative binding free energy” value was -0.02 kcal/mol. With GGGGACACGTGGTCGC the “relative binding free energy” value was 0.03 kcal/mol. With GTTTTCACGTGGTGGT the “relative binding free energy” value was 0.3 kcal/mol. TGTGACACGTGATGAT was tested, and the “relative binding free energy” value was 0.24 kcal/mol. TTGTTCACGTGGTTGA was tested, and the “relative binding free energy” value was 0.24 kcal/mol. For TTTTTCACGTGAAGGC, the “relative binding free energy” value was 0.19 kcal/mol. CGTAACACGTGTGGGG was tested, and the “relative binding free energy” value was 0.08 kcal/mol. With CCGGACACGTGATGGG the “relative binding free energy” value was 0.22 kcal/mol. With TTTGCCACGTGGAGGA the “relative binding free energy” value was 0.02 kcal/mol. AGTTTCACGTGACGGT was tested, and the “relative binding free energy” value was 0.4 kcal/mol. GTTTACACGTGTGCTG was tested, and the “relative binding free energy” value was 0.16 kcal/mol. For TGGGGCACGTGTCTGA, the “relative binding free energy” value was -0.14 kcal/mol. With CTGGCCACGTGGGGTT the “relative binding free energy” value was -0.22 kcal/mol. TTGGACACGTGTCGAT was tested, and the “relative binding free energy” value was 0.18 kcal/mol. With AGGAGCACGTGTAGCT the “relative binding free energy” value was -0.02 kcal/mol. TATGTCACGTGAAAAG was tested, and the “relative binding free energy” value was 0.08 kcal/mol. In the case of GGGACCACGTGTAGTT, the “relative binding free energy” value is reported as 0.01 kcal/mol. In the case of GTGAACACGTGAGGCT, the “relative binding free energy” value is reported as 0.32 kcal/mol. In the case of AGTCGCACGTGTAGGT, the “relative binding free energy” value is reported as 0.03 kcal/mol. TGCAACACGTGGGTGT was tested, and the “relative binding free energy” value was -0.1 kcal/mol. GGGGCCACGTGAGGTA was tested, and the “relative binding free energy” value was 0.13 kcal/mol. For CGGGACACGTGCGGGT, the “relative binding free energy” value was 0.03 kcal/mol. In the case of GTTGTCACGTGGGTCG, the “relative binding free energy” value is reported as -0.01 kcal/mol. For CGGTTCACGTGAGTAG, the “relative binding free energy” value was 0.27 kcal/mol. In the case of ACTGGCACGTGACGGG, the “relative binding free energy” value is reported as -0.09 kcal/mol. With GTGGTCACGTGGCGCG the “relative binding free energy” value was 0.03 kcal/mol. In the case of TGGCTCACGTGGGATG, the “relative binding free energy” value is reported as 0.02 kcal/mol. GGTGTCACGTGGGGTG was tested, and the “relative binding free energy” value was 0.07 kcal/mol. In the case of TGGTACACGTGTTGGG, the “relative binding free energy” value is reported as 0.14 kcal/mol. ATGTACACGTGTTATA was tested, and the “relative binding free energy” value was 0.04 kcal/mol. With GGTGGCACGTGATGAA the “relative binding free energy” value was -0.05 kcal/mol. TATCGCACGTGAGGTA was tested, and the “relative binding free energy” value was 0.16 kcal/mol. In the case of GAGCGCACGTGTGTCG, the “relative binding free energy” value is reported as 0.11 kcal/mol. For ACTGTCACGTGATTGT, the “relative binding free energy” value was 0.16 kcal/mol. With TTGATCACGTGGTTTT the “relative binding free energy” value was 0.07 kcal/mol. TGTTGCACGTGATCCT was tested, and the “relative binding free energy” value was 0.16 kcal/mol. TAGCACACGTGTGGGA was tested, and the “relative binding free energy” value was 0.21 kcal/mol. In the case of CTGTGCACGTGGAAGA, the “relative binding free energy” value is reported as 0.11 kcal/mol. In the case of GTATACACGTGTAGGT, the “relative binding free energy” value is reported as 0.08 kcal/mol. In the case of GTGTGCACGTGGGCTT, the “relative binding free energy” value is reported as -0.08 kcal/mol. For AACTTCACGTGGTGGG, the “relative binding free energy” value was 0.34 kcal/mol. With GGATACACGTGGGTCG the “relative binding free energy” value was 0.08 kcal/mol. With ATTGCCACGTGTGTTT the “relative binding free energy” value was 0.01 kcal/mol. In the case of TAGATCACGTGCGGTT, the “relative binding free energy” value is reported as 0.21 kcal/mol. CTTCTCACGTGTGGGA was tested, and the “relative binding free energy” value was 0.24 kcal/mol. For AGATGCACGTGTAGAA, the “relative binding free energy” value was 0.06 kcal/mol. With TGGAGCACGTGGTACG the “relative binding free energy” value was -0.18 kcal/mol. In the case of GGTCGCACGTGCGGGG, the “relative binding free energy” value is reported as -0.03 kcal/mol. ATAAGCACGTGGCGTA was tested, and the “relative binding free energy” value was -0.12 kcal/mol. With TAGGGCACGTGAGTAC the “relative binding free energy” value was -0.02 kcal/mol. With GGCGGCACGTGTTAGG the “relative binding free energy” value was 0.02 kcal/mol. In the case of TCGGCCACGTGGGCGG, the “relative binding free energy” value is reported as -0.18 kcal/mol. GGTATCACGTGGTATT was tested, and the “relative binding free energy” value was 0.07 kcal/mol. For TGGTTCACGTGTTATT, the “relative binding free energy” value was 0.3 kcal/mol. In the case of TGCAACACGTGAGGTG, the “relative binding free energy” value is reported as 0.19 kcal/mol. For TAATGCACGTGGGGGA, the “relative binding free energy” value was -0.27 kcal/mol. GTTTACACGTGGTATC was tested, and the “relative binding free energy” value was 0.19 kcal/mol. ATTATCACGTGGGGCT was tested, and the “relative binding free energy” value was -0.11 kcal/mol. TATGACACGTGGTATA was tested, and the “relative binding free energy” value was -0.04 kcal/mol. With CATATCACGTGGATTG the “relative binding free energy” value was 0.07 kcal/mol. For GTTGGCACGTGGTATT, the “relative binding free energy” value was -0.06 kcal/mol. GGTCGCACGTGTGGAA was tested, and the “relative binding free energy” value was 0.07 kcal/mol. GGTATCACGTGCTAGG was tested, and the “relative binding free energy” value was -0.03 kcal/mol. For GCAGGCACGTGATGTG, the “relative binding free energy” value was -0.04 kcal/mol. GCTTGCACGTGAATGT was tested, and the “relative binding free energy” value was 0.26 kcal/mol. With TCAGGCACGTGTTTAG the “relative binding free energy” value was -0.12 kcal/mol.
